Source: publication PMC4336329 (PLoS ONE, 2015)
In all, about 310,000 compounds went through this assay and about 2,200 (0.71%) showed an effect of 50% or more. The effect is printed as a negative number. This is one part of the list.

Biological target: human ether-à-go-go-related gene (hERG) potassium channel (human, UniProt Q12809)
Test: primary screen, population patch clamp on CHO cells stably expressing hERG

Chain of human ether-à-go-go-related gene (hERG) potassium channel (Q12809 whole entry, looked up): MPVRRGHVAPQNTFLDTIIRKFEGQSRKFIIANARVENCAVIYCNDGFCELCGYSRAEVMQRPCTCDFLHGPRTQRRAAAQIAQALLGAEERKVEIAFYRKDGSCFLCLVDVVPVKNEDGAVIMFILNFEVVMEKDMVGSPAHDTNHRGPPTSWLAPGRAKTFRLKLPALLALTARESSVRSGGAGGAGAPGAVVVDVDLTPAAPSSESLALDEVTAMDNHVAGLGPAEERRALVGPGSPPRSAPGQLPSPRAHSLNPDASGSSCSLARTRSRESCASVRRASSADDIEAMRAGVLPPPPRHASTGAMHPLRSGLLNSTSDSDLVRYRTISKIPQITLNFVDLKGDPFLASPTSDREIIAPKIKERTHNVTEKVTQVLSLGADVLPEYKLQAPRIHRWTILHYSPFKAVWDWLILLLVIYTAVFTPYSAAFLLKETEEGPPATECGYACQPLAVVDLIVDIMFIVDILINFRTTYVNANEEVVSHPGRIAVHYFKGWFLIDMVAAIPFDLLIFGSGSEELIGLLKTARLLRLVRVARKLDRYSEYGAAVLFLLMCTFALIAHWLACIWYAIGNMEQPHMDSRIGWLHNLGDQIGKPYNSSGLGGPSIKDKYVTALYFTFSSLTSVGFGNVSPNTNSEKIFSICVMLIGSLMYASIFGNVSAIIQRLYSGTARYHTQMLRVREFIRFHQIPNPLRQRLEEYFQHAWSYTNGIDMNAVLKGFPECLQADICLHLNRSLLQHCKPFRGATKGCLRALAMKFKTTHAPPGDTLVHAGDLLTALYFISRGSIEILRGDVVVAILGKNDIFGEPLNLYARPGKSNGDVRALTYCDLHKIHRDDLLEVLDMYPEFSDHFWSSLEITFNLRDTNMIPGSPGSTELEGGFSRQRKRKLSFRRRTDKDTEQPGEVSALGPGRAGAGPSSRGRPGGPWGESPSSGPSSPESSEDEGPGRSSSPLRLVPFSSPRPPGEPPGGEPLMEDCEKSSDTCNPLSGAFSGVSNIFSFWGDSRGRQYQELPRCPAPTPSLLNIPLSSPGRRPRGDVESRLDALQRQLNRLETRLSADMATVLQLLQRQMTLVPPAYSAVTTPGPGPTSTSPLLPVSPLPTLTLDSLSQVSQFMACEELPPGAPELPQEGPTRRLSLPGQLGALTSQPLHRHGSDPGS

| SMILES | hERG current change (%, negative = inhibition) at 1uM [%] |
| --- | --- |
| OC1(c2cccnc2)CC2CCC(C1)N2Cc1nnnn1Cc1ccccc1 (centres unmarked) | -4.36 |
| CC1CC(C)CN(C(=O)COC(=O)c2ccc3c(c2)C(=O)N(Cc2ccco2)C3=O)C1 (centres unmarked) | -8.39 |
| CC(=O)c1cccc(NC(=O)COC(=O)c2ccccn2)c1 | 8.6 |
| COCCNc1nc2ccccc2nc1NS(=O)(=O)c1ccc(C)cc1C | 10.6 |
| CCCc1cc(C(=O)Nc2ccc(C)cc2)no1 | 1.49 |
| COc1ccc(C2CC(=O)NC(=O)C2)cc1 | 17.4 |
| CCC(=O)c1ccc(OCC(=O)O)c(OC)c1 | 8.14 |
| CN(CC(=O)Nc1ccc(F)cc1)C(=O)COC(=O)C1CCN(c2ccc(C(F)(F)F)cn2)CC1 | -37.3 |
| CC1=C(CCN2CCN(C(C)C)C(CCO)C2)C(C)(C)CCC1 (centres unmarked) | 6.4 |
| O=C(NC1CCCC1)C1CCN(C(=O)c2cc(Cl)ccc2Cl)CC1 | 6.24 |
| O=C1CC2(CCCCC2)Oc2ccccc21 | 14.7 |
| CCN=C1SC(C(=O)NCCc2ccccc2)CC(=O)N1CC (centres unmarked) | 3.92 |
| CCOC(=O)c1cccc(NC(=O)Nc2cc(OC)ccc2OC)c1 | 9.51 |
| O=C(CN1CCN(c2ccc(O)cc2)CC1)N1CCc2ccccc21 | 15.9 |
| CCNS(=O)(=O)c1ccc(NC(=O)c2ccccc2SCCOC)cc1 | 6.03 |
| CC1CCCN(C(=O)CCl)C1 (centres unmarked) | 12.8 |
| COC(=O)Nc1ccc(OCc2ccccc2)cc1 | 0.595 |
| CCOC(=O)c1[nH]c2c(c1C)C(=O)CC(c1ccc(N(C)C)cc1)C2 (centres unmarked) | -8.28 |
| COc1cc([N+](=O)[O-])cc(/C=N/NC(=O)c2ccc(C)nc2)c1O | 12.9 |
| CCN(CC)CCNCc1ccc(Br)cc1OCC(=O)NCc1ccccc1.Cl | -7.7 |
| Nc1ccccc1Sc1ccc(C(=O)c2ccccc2C(=O)O)cc1[N+](=O)[O-] | 5.16 |
| CC/C(=N\Nc1ccccc1)c1c(O)n(-c2ccccc2)c(=O)[nH]c1=O | 11.9 |
| Cc1ccccc1NC(=O)c1cc2ccccc2o1 | 14.7 |
| COc1cccc(OC)c1C(=O)Nc1ccccc1C(=O)N1CCCC1 | -3.78 |
| CN(CC(=O)Nc1cccc(F)c1)CC(=O)Nc1cccc(S(=O)(=O)N2CCCCCC2)c1 | 5.75 |
| CN(C)CCOCCSc1ccc(Cl)cc1.O=C(O)C(=O)O | 1.04 |
